{"source": "the supplement of paper PMC3334620", "note": "Over roughly 33,000 sequences, “E-score (-0.5 to 0.5)” has its median near -0.056; the highest 2% begin near 0.38. This is one part of the list."}
{"molecular_target": "Stb4 (UniProt P50104)", "experiment": "PBM E-score (8-mer binding enrichment) (E-score (-0.5 to 0.5)); higher = stronger / more preferred TF binding; most listed sequences are background and not binding sites", "details": "protein concentration: 200 nM; construct: GST-DNA-binding domain", "method_in_brief": "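Yeast transcription factors, full-length or as DNA-binding domains, were expressed with a GST tag using PURExpress in vitro transcription/translation. At about 100-200 nM they were applied to universal all-10-mer Agilent arrays, double-stranded by primer extension on fresh or once-stripped slides. Fluorescent anti-GST detected bound protein, and masliner normalised the scans. E-scores for ungapped eight-base words, pooled with reverse complements, came from the Universal PBM Analysis Suite.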"}
{"sequence": "ACTTTGAT", "PBM E-score": -0.156}
{"sequence": "GAGTGTTA", "PBM E-score": 0.0282}
{"sequence": "AAAGTACA", "PBM E-score": -0.301}
{"sequence": "ACATCCAC", "PBM E-score": 0.0415}
{"sequence": "AGCCGTCC", "PBM E-score": 0.163}
{"sequence": "GGTGCTGA", "PBM E-score": 0.167}
{"sequence": "AAAAATAG", "PBM E-score": 0.0724}
{"sequence": "AATGGTAC", "PBM E-score": 0.039}
{"sequence": "CTATGCGC", "PBM E-score": -0.0143}
{"sequence": "AGCTCCTA", "PBM E-score": -0.054}
{"sequence": "TCTCGCAA", "PBM E-score": 0.0202}
{"sequence": "TCTGATCA", "PBM E-score": -0.0843}
{"sequence": "GAGGGCTA", "PBM E-score": -0.195}
{"sequence": "GAGCATCA", "PBM E-score": -0.181}
{"sequence": "AGTAAGCA", "PBM E-score": -0.155}
{"sequence": "CAACCTTC", "PBM E-score": -0.0953}
{"sequence": "GCTTTTCC", "PBM E-score": 0.244}
{"sequence": "CGTGGTGA", "PBM E-score": -0.132}
{"sequence": "CCACACAA", "PBM E-score": -0.292}
{"sequence": "ACTAGCAA", "PBM E-score": -0.0688}
{"sequence": "CATCCAGA", "PBM E-score": -0.199}
{"sequence": "AGCCCACT", "PBM E-score": -0.216}
{"sequence": "ACCCGATA", "PBM E-score": 0.349}
{"sequence": "CGGCGCGA", "PBM E-score": 0.19}
{"sequence": "CCACGCCA", "PBM E-score": -0.364}
{"sequence": "GCTGGTAC", "PBM E-score": 0.0995}
{"sequence": "ACGCGGAC", "PBM E-score": 0.0769}
{"sequence": "CTTGTAGC", "PBM E-score": -0.167}
{"sequence": "GTCGTAGA", "PBM E-score": -0.133}
{"sequence": "AGCCCCCT", "PBM E-score": -0.312}
{"sequence": "ACGGTGCT", "PBM E-score": -0.0775}
{"sequence": "CGGCAAGA", "PBM E-score": 0.298}
{"sequence": "CCGGGTCG", "PBM E-score": 0.321}
{"sequence": "GGCACTAA", "PBM E-score": 0.153}
{"sequence": "ACCGGATG", "PBM E-score": 0.385}
{"sequence": "AGGATGAT", "PBM E-score": -0.193}
{"sequence": "CGACGCGA", "PBM E-score": 0.0647}
{"sequence": "GGCATCCC", "PBM E-score": -0.00541}
{"sequence": "GGCTCAGA", "PBM E-score": -0.0626}
{"sequence": "CGAGATCA", "PBM E-score": 0.0931}
{"sequence": "CATTGCCA", "PBM E-score": 0.0541}
{"sequence": "CCACTCCA", "PBM E-score": -0.146}
{"sequence": "CTTCGGGA", "PBM E-score": 0.439}
{"sequence": "CCGCGTGA", "PBM E-score": 0.121}
{"sequence": "TCAAGCAA", "PBM E-score": -0.198}
{"sequence": "AGCCGACG", "PBM E-score": 0.353}
{"sequence": "AGTACCTG", "PBM E-score": -0.265}
{"sequence": "CCATTCTA", "PBM E-score": -0.163}
{"sequence": "ACTTCGTG", "PBM E-score": -0.0997}
{"sequence": "ACGCGGCT", "PBM E-score": 0.123}
{"sequence": "AGCTACAT", "PBM E-score": -0.207}
{"sequence": "CGAAAATC", "PBM E-score": 0.0705}
{"sequence": "TATCGTCA", "PBM E-score": -0.124}
{"sequence": "GATCCGCA", "PBM E-score": 0.316}
{"sequence": "CCCGCATC", "PBM E-score": 0.101}
{"sequence": "CCTGACAA", "PBM E-score": -0.203}
{"sequence": "CGAACGAC", "PBM E-score": -0.0483}
{"sequence": "CCAGGGTC", "PBM E-score": -0.146}
{"sequence": "AGGCTGTC", "PBM E-score": -0.0996}
{"sequence": "TACGGCAA", "PBM E-score": 0.215}
{"sequence": "AAGCGATT", "PBM E-score": -0.0187}
{"sequence": "CCATAGTC", "PBM E-score": -0.171}
{"sequence": "GAATGGTC", "PBM E-score": 0.0599}
{"sequence": "ACAATGGT", "PBM E-score": -0.216}
{"sequence": "ACCTGTAC", "PBM E-score": -0.0504}
{"sequence": "ATTCCAGG", "PBM E-score": -0.129}
{"sequence": "AACCCCAA", "PBM E-score": -0.0616}
{"sequence": "GATAAGTA", "PBM E-score": 0.0852}
{"sequence": "CCCGTCCA", "PBM E-score": 0.173}
{"sequence": "AGACCTCG", "PBM E-score": 0.162}
{"sequence": "CTATAAGC", "PBM E-score": -0.04}
{"sequence": "AAGAAAAT", "PBM E-score": 0.142}
{"sequence": "CAGGTACG", "PBM E-score": 0.0561}
{"sequence": "CGCAATCA", "PBM E-score": -0.00325}
{"sequence": "CATGCGGG", "PBM E-score": 0.0495}
{"sequence": "ATGGCTAC", "PBM E-score": -0.0728}
{"sequence": "CAAGCGTC", "PBM E-score": -0.111}
{"sequence": "AGGCGGGA", "PBM E-score": 0.0839}
{"sequence": "GAGACATC", "PBM E-score": 0.0952}
{"sequence": "GACTACTA", "PBM E-score": -0.154}
{"sequence": "GTAACCAA", "PBM E-score": 0.145}
{"sequence": "ACTTTCAA", "PBM E-score": 0.117}
{"sequence": "GATAAGAC", "PBM E-score": 0.0398}
{"sequence": "GACGTAAA", "PBM E-score": 0.112}
{"sequence": "GCCTGCGC", "PBM E-score": -0.142}
{"sequence": "ACACCGGA", "PBM E-score": 0.312}
{"sequence": "GCTGCGTA", "PBM E-score": -0.196}
{"sequence": "CAGGTGTA", "PBM E-score": -0.327}
{"sequence": "GCGCGGAA", "PBM E-score": 0.338}
{"sequence": "GTCCAATA", "PBM E-score": 0.0919}
{"sequence": "GAAGGGCC", "PBM E-score": -0.00688}
{"sequence": "GAGACGCA", "PBM E-score": 0.0275}
{"sequence": "CAGTGAAC", "PBM E-score": -0.179}
{"sequence": "CGCGAATA", "PBM E-score": 0.034}
{"sequence": "CAGACGTC", "PBM E-score": -0.0928}
{"sequence": "CAGAAATC", "PBM E-score": -0.132}
{"sequence": "ACCCACAG", "PBM E-score": -0.344}
{"sequence": "CGATTTTA", "PBM E-score": 0.0383}
{"sequence": "CCGTGAAC", "PBM E-score": 0.0835}
{"sequence": "AGAAAATC", "PBM E-score": 0.0513}
{"sequence": "ACGATTTC", "PBM E-score": 0.00914}
{"sequence": "AGATCGAT", "PBM E-score": -0.16}
{"sequence": "CAGCGGGA", "PBM E-score": 0.106}
{"sequence": "AGTCTCTG", "PBM E-score": -0.0746}
{"sequence": "ATCAAGTC", "PBM E-score": -0.123}
{"sequence": "ACACACCG", "PBM E-score": 0.0907}
{"sequence": "ACGATCTC", "PBM E-score": -0.0413}
{"sequence": "AAGAAAAC", "PBM E-score": 0.151}
{"sequence": "ATATCGAA", "PBM E-score": -0.0617}
{"sequence": "ATACGGAC", "PBM E-score": 0.0382}
{"sequence": "CTATGTCC", "PBM E-score": 0.0466}
{"sequence": "CCTGGTTC", "PBM E-score": -0.0191}
{"sequence": "AAGGTTCT", "PBM E-score": -0.0262}
{"sequence": "AGAAGCAT", "PBM E-score": -0.169}
{"sequence": "CGTAATGC", "PBM E-score": 0.0189}
{"sequence": "AATACCTA", "PBM E-score": -0.283}
{"sequence": "TCAAGAAA", "PBM E-score": -0.0248}
{"sequence": "AAAGCGAT", "PBM E-score": -0.0192}
{"sequence": "CGCTACAG", "PBM E-score": -0.122}
{"sequence": "ATGCTACC", "PBM E-score": 0.138}
{"sequence": "CACCAAGG", "PBM E-score": -0.00322}
{"sequence": "GAGAAAAA", "PBM E-score": 0.155}
{"sequence": "TCCGGTAA", "PBM E-score": 0.352}
{"sequence": "ATTCGATA", "PBM E-score": -0.0679}
{"sequence": "GGAAAAAA", "PBM E-score": 0.269}
{"sequence": "CAAGACGC", "PBM E-score": 0.0175}
{"sequence": "AGGAAAAA", "PBM E-score": -0.063}
{"sequence": "GCCGCAAA", "PBM E-score": 0.0677}
{"sequence": "TATTAGAA", "PBM E-score": -0.00872}
{"sequence": "ACCCTAAA", "PBM E-score": 0.0491}
{"sequence": "GTATACTA", "PBM E-score": -0.216}
{"sequence": "GCAGGTAC", "PBM E-score": 0.0062}
{"sequence": "ACCATGGG", "PBM E-score": -0.175}
{"sequence": "CCCATGGG", "PBM E-score": 0.0295}
{"sequence": "GCTCGGAC", "PBM E-score": 0.391}
{"sequence": "ATTCTTGC", "PBM E-score": 0.101}
{"sequence": "CGTCTGCC", "PBM E-score": 0.0236}
{"sequence": "ACATTTCA", "PBM E-score": 0.0436}
{"sequence": "AATCCCGA", "PBM E-score": 0.431}
{"sequence": "ATAATGCA", "PBM E-score": -0.16}
{"sequence": "ATAGTTCA", "PBM E-score": -0.0585}
{"sequence": "GCCGGAAC", "PBM E-score": 0.428}
{"sequence": "ACACCCGG", "PBM E-score": 0.331}
{"sequence": "AGTTGCAT", "PBM E-score": -0.00988}
{"sequence": "CGTGGAAA", "PBM E-score": 0.0527}
{"sequence": "ACAGCAAA", "PBM E-score": -0.201}
{"sequence": "CTTGCTCA", "PBM E-score": -0.202}
{"sequence": "ACATACAT", "PBM E-score": -0.101}
{"sequence": "AATATGGG", "PBM E-score": -0.152}
{"sequence": "AGAGCATA", "PBM E-score": -0.16}
{"sequence": "CGCAGCAC", "PBM E-score": -0.0429}
{"sequence": "CGTTTAGA", "PBM E-score": -0.0135}
{"sequence": "GAGCGCCA", "PBM E-score": 0.0507}
{"sequence": "ACTCCATA", "PBM E-score": -0.175}
{"sequence": "ATAGCCGC", "PBM E-score": 0.236}
{"sequence": "CGTCGACC", "PBM E-score": -0.15}
{"sequence": "ACGGCGCG", "PBM E-score": 0.076}
{"sequence": "CACCGCAG", "PBM E-score": 0.0289}
{"sequence": "GTAGCAAC", "PBM E-score": -0.0718}
{"sequence": "CACGTTGG", "PBM E-score": -0.375}
{"sequence": "AACAGGCA", "PBM E-score": -0.151}
{"sequence": "CTTACACA", "PBM E-score": -0.127}
{"sequence": "GTCACCCA", "PBM E-score": -0.111}
{"sequence": "GTCCACAC", "PBM E-score": 0.0281}
{"sequence": "CTGGAATA", "PBM E-score": -0.00819}
{"sequence": "ACTGAGTA", "PBM E-score": -0.22}
{"sequence": "GATATATC", "PBM E-score": 0.273}
{"sequence": "AAGACCAG", "PBM E-score": -0.132}
{"sequence": "AACTACGC", "PBM E-score": -0.0133}
{"sequence": "GGGTGCCA", "PBM E-score": 0.0454}
{"sequence": "TGCTCCCA", "PBM E-score": -0.129}
{"sequence": "AGCCACCG", "PBM E-score": 0.0559}
